# Laboratory results: publication PMC4336329 (PLoS ONE, 2015)
# The whole screen tested about 310,000 compounds, of which about 2,200 (0.71%) showed an effect of 50% or more. Effects have a minus sign here. The list shows a part of the results.
# Target: human ether-à-go-go-related gene (hERG) potassium channel (human, UniProt Q12809)
# Test: primary screen, population patch clamp on CHO cells stably expressing hERG
# human ether-à-go-go-related gene (hERG) potassium channel, sequence (Q12809 whole entry, looked up): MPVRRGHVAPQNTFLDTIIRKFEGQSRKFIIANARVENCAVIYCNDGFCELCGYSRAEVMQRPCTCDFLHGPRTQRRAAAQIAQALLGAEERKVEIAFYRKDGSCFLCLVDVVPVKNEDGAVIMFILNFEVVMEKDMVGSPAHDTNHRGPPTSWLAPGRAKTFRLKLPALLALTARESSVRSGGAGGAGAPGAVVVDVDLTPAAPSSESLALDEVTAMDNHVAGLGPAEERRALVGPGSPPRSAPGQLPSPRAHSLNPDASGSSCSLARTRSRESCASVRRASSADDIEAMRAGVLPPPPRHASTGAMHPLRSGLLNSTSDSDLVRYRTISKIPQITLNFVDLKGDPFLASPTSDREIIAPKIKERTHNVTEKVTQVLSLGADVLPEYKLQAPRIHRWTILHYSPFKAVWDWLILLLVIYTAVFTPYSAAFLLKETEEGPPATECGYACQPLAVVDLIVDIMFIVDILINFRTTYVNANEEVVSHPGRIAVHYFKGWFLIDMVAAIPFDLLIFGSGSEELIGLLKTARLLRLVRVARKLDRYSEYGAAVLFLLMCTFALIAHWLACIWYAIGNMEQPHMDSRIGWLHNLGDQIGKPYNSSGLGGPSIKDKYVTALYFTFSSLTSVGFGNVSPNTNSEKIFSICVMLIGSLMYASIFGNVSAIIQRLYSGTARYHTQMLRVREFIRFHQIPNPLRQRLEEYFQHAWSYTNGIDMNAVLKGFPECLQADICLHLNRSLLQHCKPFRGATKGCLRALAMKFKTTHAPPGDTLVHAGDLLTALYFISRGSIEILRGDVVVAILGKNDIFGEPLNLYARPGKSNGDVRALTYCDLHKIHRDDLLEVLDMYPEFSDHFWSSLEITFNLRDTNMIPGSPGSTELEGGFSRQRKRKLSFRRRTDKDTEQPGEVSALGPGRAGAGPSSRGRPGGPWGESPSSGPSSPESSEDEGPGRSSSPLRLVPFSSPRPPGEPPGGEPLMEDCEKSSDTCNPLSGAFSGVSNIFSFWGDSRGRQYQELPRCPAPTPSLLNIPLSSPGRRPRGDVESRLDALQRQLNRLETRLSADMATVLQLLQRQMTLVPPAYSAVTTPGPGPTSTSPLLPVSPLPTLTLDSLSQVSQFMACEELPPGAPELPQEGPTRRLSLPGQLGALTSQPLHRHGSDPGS
row,Structure (SMILES),"hERG current change (%, negative = inhibition) at 1uM"
1,CC(C)C(=O)NC(C)C(c1cccs1)N1CCN(c2ccccc2)CC1 (stereo not drawn),3.16%
2,O=c1[nH][nH]cc1C=Nc1ccc(Oc2ccccc2)cc1,9.3%
3,COc1ccccc1CNC(=O)CCc1cn(C)c2ccccc12,5.5%
4,CCN(CC(=O)NC(=O)NCc1ccco1)Cc1nc2ccccc2c(=O)[nH]1,8.27%
5,CC1(C)CC(=O)C(C(c2ccc(F)cc2)C2C(=O)CC(C)(C)CC2=O)C(=O)C1,17%
6,CCc1ccccc1NS(=O)(=O)c1cc(C)ccc1OC,-4.13%
7,COC(=O)c1cc2n(n1)CCN(Cc1ccc(F)cc1)C2=O,-2.09%
8,COc1cccc(/C(O)=C2/C(=O)C(=O)N(CCN3CCOCC3)C2c2cccnc2)c1 (stereo not drawn),10.7%
9,Cc1nc2c(o1)CCc1ccccc1C2N1CCN(C)CC1.O=C(O)/C=C/C(=O)O (stereo not drawn),5.21%
10,CCc1cccc(N(CC(=O)NC2CCCCC2)C(=O)c2csnn2)c1,10.4%
11,CC(C)(C)NC(=O)COc1ccc(CNc2ccc3[nH]c(=O)[nH]c3c2)cc1,6.35%
12,CN(C)S(=O)(=O)c1cccc(COC(=O)c2cccnc2Cl)c1,-5.16%
13,c1ccc(C2=Nn3c(Cn4nnc5ccccc54)nnc3SC2)cc1,9.56%
14,O=C(C1CCCO1)N1CCN(c2ccc(F)cc2)CC1 (stereo not drawn),3.43%
15,CCOC(=O)c1cnn2c(C)cc(-c3ccc(F)cc3)nc12,-4.24%
16,Cc1ccccc1C(=O)N/N=C/c1ccsc1C,9.56%
17,O=C(Cn1nc(C(=O)O)c2ccccc2c1=O)Nc1ccc(Br)cc1,12.7%
18,CCC(CC)c1nnc(NC(=O)Oc2ccccc2)s1,1.13%
19,CCCc1ccc(C(=O)CN2C(=O)C(=O)N(C3CCCC3)C2=O)cc1,0.929%

row,Structure (SMILES),"hERG current change (%, negative = inhibition) at 1uM"
1,Cc1cccc(C(=O)NCCc2ccccc2)c1,-2.51%
2,CCCn1nc(Oc2nc(NCC)nc(NCC)n2)ccc1=O,10.6%
3,CCC(C)(C)C1CCC2(CC1)NC(=O)N(CC(=O)N(C)CC(=O)Nc1ccccc1C(F)(F)F)C2=O (stereo not drawn),1.57%
4,Cc1ccnn1CCC(=O)N1CCCC(Nc2ccc(F)c(F)c2)C1 (stereo not drawn),19.6%
5,CC(C)NC(=O)C1CCCN(c2nnc(-n3cccc3)s2)C1 (stereo not drawn),2.28%
6,CCc1cc(=O)oc2cc(OC(C)C(=O)NCc3ccccn3)ccc12 (stereo not drawn),22.5%
7,COc1cc(CO)ccc1OCC(=O)Nc1cccc2ccccc12,9.53%
8,CC(C)n1cnnc1SCC(=O)Nc1cccc(S(=O)(=O)N(C)c2ccccc2)c1,4.63%
9,CC(C)CO/C(=N/S(=O)(=O)c1ccccc1)c1ccccc1,13.7%
10,CCSc1nnc(NC(=O)c2ccc(Br)s2)s1,5.18%
11,Cn1cnnc1SCC(=O)c1ccc(O)c(O)c1,17.4%
12,O=C(O)CC(NNC(=O)c1ccccc1)C(=O)Nc1cccc([N+](=O)[O-])c1 (stereo not drawn),12.5%
13,CCCNC(=O)C1CC(c2ccccc2[N+](=O)[O-])=NO1 (stereo not drawn),7.38%
14,Cc1cccc(C(=O)OCC(=O)N2CCC(c3ccccc3)=N2)c1O,16.6%
15,COc1ccc(S(=O)(=O)n2cnc3cc(C)c(C)cc32)cc1,10%
16,CCOc1ccc(NC(=O)CCCCCN2C(=O)[C@@H]3Cc4ccccc4CN3C2=O)cc1,16.7%
17,Fc1ccc(C(c2nnnn2Cc2cccs2)N2CCN(C3CCCCC3)CC2)cc1 (stereo not drawn),-46.6%
18,Cc1nc(Cl)nc(N(C)c2ccccc2)c1[N+](=O)[O-],14.5%
19,CCOC(=O)CNC(=O)CSc1ncccc1-c1nc2ccccc2[nH]1,10.4%

row,Structure (SMILES),"hERG current change (%, negative = inhibition) at 1uM"
1,COc1cc(/C=N/OCC(=O)NC2CCCCC2)ccc1OCc1ccccc1,10.1%
2,O=C(CCn1nc(-c2ccccc2)ccc1=O)N1CCN(c2ccccc2)CC1,-2.36%
3,O=C(OCCN1C(=O)c2ccccc2C1=O)c1ccco1,10.5%
4,COc1cc(OC)cc(-c2nnc(SCC(=O)NCc3cccs3)o2)c1,12.6%
5,COc1ccc(Nc2cc(Nc3ccccc3)ncn2)cc1,7.07%
6,Cc1ccc2[nH]c(=O)c(CN(Cc3ccco3)C(=O)N3CCOCC3)cc2c1,11.1%
7,CCc1ccc(NC(=O)CN(c2ccccc2)S(=O)(=O)N(C)C)cc1,9.07%
8,CC(C)c1ccccc1NC(=S)NC1CCCCC1,-3.11%
9,CC(C)(C)c1ccc(C(=O)NCC(=O)N2CCC3(CC2)NCCc2[nH]cnc23)cc1,17.8%
10,Cc1ccc(C(=O)NN2C(=O)c3ccc(S(=O)(=O)c4ccc(C(=O)O)cc4)cc3C2=O)cc1,15.7%
11,O=C(COc1ccccc1Cl)NC(=S)Nc1cccc(NC(=O)c2ccccc2Cl)c1,19.9%
12,O=C(COC(=O)Cn1cnc2ccccc21)Nc1cccc2c1C(=O)c1ccccc1C2=O,13.1%
13,Cc1ccc(S(=O)(=O)NCCN2CCOCC2)s1,12.4%
14,CN(C(=O)COC(=O)COc1ccc2c(c1)CCC2)c1c(N)n(Cc2ccccc2)c(=O)[nH]c1=O,0.783%
15,O=C(NCCc1ccccc1F)N[C@@H](Cc1ccccc1)C(=O)O,-0.906%
16,O=C(O)c1cnc(-c2ccccc2)nc1Oc1ccc(Cl)cc1,16.7%
17,Cc1ccc(CNC(=O)Nc2ccccc2)c(C)c1,12%
18,CCOC(=O)N1CCN(C(=O)Nc2cccc(Cl)c2)CC1,9.56%
19,C=CCNc1nc(Nc2ccc(Cl)cc2)nc(OC)n1,-3.19%
